# “And” between values parts separate entries of the source, which are not always exact repeats. Equal entries are not always repeated. The shares of active, inactive and inconclusive entries below differ from those in the screen. For part of these data: Potencies beside an inconclusive call are fits to weak or partial responses and may not hold up. Where a structure was tested more than once in an assay, its records may differ in their call. The source made the active and inactive calls. Unless noted, calls come from the whole dose curve; as a rule, active = well fitted curve in the direction sought with a large enough effect in the repeat runs; inconclusive = weak or mixed curves; inactive = no such curve, though single readings can be large; an effect the other way counts as inactive or inconclusive.
# Columns and labels:
# [1] = qHTS assay to identify small molecule agonists of the endoplasmic reticulum stress response signaling pathway (AID 1159516; active = well fitted activation curve with a large enough effect in the signal ratio in the repeat runs, not every such curve was filed as active; inconclusive = weak or mixed curves, or effect the other way; the % refers to the signal ratio; note: % is set by controls: 0 for no effect and ±100 for the full control effect); details: ESRE-bla HeLa, ER stress beta-lactamase reporter, 5 h; activation: at 61 µM (top of the series) unless noted
# Method in brief: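 Fluorescence at 460 and 530 nm (405 nm excitation) reports beta-lactamase from an ER stress response element in HeLa cells treated 5 hr at 37 C.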
# [2] = target: Retinoic acid receptor RXR-alpha (Homo sapiens) (UniProt P19793); assay: qHTS assay to identify small molecule agonists of the RXR signaling pathway (AID 1159527; calls by dose curve; note: nearly all actives have a fitted effect of over 35% in size; note: potency is the fitted concentration of half-maximal effect; for activation: % is set by controls: 0 for no effect and ±100 for the full control effect); details: HEK293T RXRa-UAS-bla, beta-lactamase ratio, 16 h; activation: at 76.8 µM (top of the series) unless noted
# UniProt P19793, sequence (P19793 whole entry, looked up): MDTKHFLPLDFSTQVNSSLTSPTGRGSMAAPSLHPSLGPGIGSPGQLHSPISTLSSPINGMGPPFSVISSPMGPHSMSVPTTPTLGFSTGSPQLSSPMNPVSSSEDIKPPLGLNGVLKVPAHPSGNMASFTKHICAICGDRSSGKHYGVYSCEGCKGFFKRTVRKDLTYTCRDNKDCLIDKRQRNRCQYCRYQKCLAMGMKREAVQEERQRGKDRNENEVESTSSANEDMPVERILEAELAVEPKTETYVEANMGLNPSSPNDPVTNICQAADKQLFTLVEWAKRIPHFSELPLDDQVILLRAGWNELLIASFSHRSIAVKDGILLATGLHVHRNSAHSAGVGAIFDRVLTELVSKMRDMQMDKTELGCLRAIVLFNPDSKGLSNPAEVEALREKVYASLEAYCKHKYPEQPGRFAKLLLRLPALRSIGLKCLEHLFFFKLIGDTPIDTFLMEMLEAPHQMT
# Method in brief: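 GeneBLAzer RXR-alpha-UAS-bla HEK 293T cells in medium with 2% charcoal-stripped FBS, pre-incubated 5 hr at 37 C, then exposed to compounds 16 hr. Beta-lactamase reporter read by FRET substrate, 2 hr room temperature, 460/530 nm emission.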
# [3] = qHTS assay to identify small molecule antagonists of the vitamin D receptor (VDR) signaling pathway - cell viability counter screen (AID 743225); details: VDR-bla HEK293T viability, CellTiter-Glo luminescence, 16 h; viability change, negative = cytotoxic: at 61 µM (top of the series) unless noted; note: nearly all actives have a fitted effect of over 50% in size; note: potency is the fitted concentration of half-maximal effect; for viability change, negative = cytotoxic: % is set by controls: 0 for no effect and ±100 for the full control effect
# Method in brief: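 VDR-bla HEK 293T cells, 4 h pre-incubation at 37C, then compound plus 1-alpha,25-dihydroxyvitamin D3 (3 nM final) for 16 h. After the beta-lactamase FRET read, CellTiter-Glo was added to the same wells; luminescence after 30 min at room temperature.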
# [4] = qHTS assay to identify small molecule agonists of the RXR signaling pathway - cell viability counter screen (AID 1159529); note: nearly all actives have a fitted effect of over 50% in size; note: potency is the fitted concentration of half-maximal effect
# Method in brief: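 RXR-alpha-UAS-bla HEK 293T cells in medium with 2% charcoal-stripped FBS were preincubated 5 hr, then exposed to compounds for 16 hr at 37 C. Viability was read as CellTiter-Glo luminescence after 30 min at room temperature.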
# [5] = qHTS assay to identify small molecule antagonists of the retinoid-related orphan receptor gamma (ROR-gamma) signaling pathway - cell viability counter screen (AID 1159520); note: potency is the fitted concentration of half-maximal effect; nearly all actives have a fitted effect of over 50% in size
# Method in brief: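 Tet-on ROR gamma CHO cells (1,000/well) were plated 4 hr, given compounds in DMSO for 2 hr at 37 C, then induced with 1 uM final doxycycline for 16 hr. Viability was read as ATP by CellTiter-Glo luminescence after 30 min.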
# [6] = qHTS assay to identify small molecule agonists of the AP-1 signaling pathway (AID 1159526; calls by dose curve; note: potency is the fitted concentration of half-maximal effect; for activation: % is set by controls: 0 for no effect and ±100 for the full control effect); details: ME-180 (cervical carcinoma) AP-1-bla reporter, beta-lactamase FRET ratio, 5 h; activation: at 76.8 µM (top of the series) unless noted
# [7] = qHTS assay to identify small molecule agonists of the endoplasmic reticulum stress response signaling pathway - cell viability counter screen (AID 1159517; calls by dose curve; note: nearly all actives have a fitted effect of over 50% in size; note: potency is the fitted concentration of half-maximal effect)
# Method in brief: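 Cpd-treated ESRE-bla HeLa (5 hr, 37 C) → LiveBLAzer 2 hr RT → CellTiter-Glo 30 min RT → luminescence.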
# [8] = target: Nuclear receptor ROR-gamma (Homo sapiens) (UniProt P51449); assay: qHTS assay to identify small molecule antagonists of the retinoid-related orphan receptor gamma (ROR-gamma) signaling pathway (AID 1159521)
# Method in brief: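 Tet-on RORγ CHO cells carrying a ROR response element–luciferase reporter were pretreated with compounds for 2 h, then induced with 1 uM (final) doxycycline hyclate for 16 h at 37 C. Antagonism was read as decreased ONE-Glo luminescence.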
# Tags give direction and shape of the fitted curve or compound fluorescence and quenching.
smiles,measurement,setting,value
Cc1ccc2c(c1)C(=O)OC2=O,Potency,[1],inactive
same,activation,[2],inconclusive: 11.2%
CCOC(=O)CC,"viability change, negative = cytotoxic",[3],inconclusive: 6.13% [cytotoxic]
same,Potency,[2],inactive
CC(=O)OCCOCCOCCOC(C)=O,Potency,[2],inactive and active: 12.3 µM
CCC1CO1 (stereo not given),Potency,[4],inactive
C=C[Si](OC(=C)C)(OC(=C)C)OC(=C)C,Potency,[2],inactive
Cc1c(O)cccc1C(=O)N[C@@H](CSc1ccccc1)[C@H](O)CN1C[C@H]2CCCC[C@H]2C[C@H]1C(=O)NC(C)(C)C,Potency,[3],active: 23.9 µM and active: 21.3 µM
same,Potency,[5],"inconclusive: 21.1 µM [cytotoxic, partial curve, poor fit] and inconclusive: 18.8 µM [cytotoxic, partial curve, poor fit]"
same,activation,[6],inconclusive: -6.89% [at 35.3 µM]
same,Potency,[2],inconclusive: 10.7 µM and inconclusive: 4.77 µM
same,Potency,[4],"inconclusive: 3.79 µM [cytotoxic, full curve] and inconclusive: 6.01 µM [cytotoxic, full curve]"
c1ccc2sc(SN(C3CCCCC3)C3CCCCC3)nc2c1,activation,[2],inconclusive: -24.4%
same,Potency,[4],inactive
CC(C)=CCC1C(=O)N(c2ccccc2)N(c2ccccc2)C1=O,Potency,[7],inactive
same,Potency,[2],inconclusive: 23.9 µM [inhibitor]
c1cc(C(c2ccc(OCC3CO3)cc2)C(c2ccc(OCC3CO3)cc2)c2ccc(OCC3CO3)cc2)ccc1OCC1CO1 (stereo not given),Potency,[3],inactive
same,Potency,[6],"inconclusive: 4.89 µM [falling, partial curve, poor fit]"
same,activation,[6],inconclusive: 24.7%
same,Potency,[2],"inconclusive: 25.5 µM [fluorescent, partial curve] and inconclusive: 15.5 µM [fluorescent, partial curve]"
same,Potency,[4],"inconclusive: 9.76 µM [cytotoxic, partial curve, poor fit]"
CCCCCCC(O)CCCCCCCCCCC(=O)O (stereo not given),Potency,[3],"inconclusive: 21.9 µM [cytotoxic, single point]"
same,"viability change, negative = cytotoxic",[3],inconclusive: -5.87% [cytotoxic]
same,Potency,[7],inactive
same,Potency,[8],"inconclusive: 27.4 µM [inhibitor, full curve] and inconclusive: 61.1 µM [inhibitor, single point]"
same,Potency,[6],"inconclusive: 5.51 µM [activator, full curve, poor fit] and inconclusive: 6.17 µM [activator, full curve, poor fit]"
same,Potency,[4],"inconclusive: 43.8 µM [cytotoxic, partial curve] and inconclusive: 21.9 µM [cytotoxic, full curve]"
Nc1c2c(nc3ccccc13)CCCC2,Potency,[7],"inconclusive: 0.0078 µM [cytotoxic, full curve, poor fit]"
same,activation,[2],inconclusive: 14.4%
same,Potency,[4],inactive

# Source: PubChem BioAssay (Tox21)
